The results in this text go back to PMC3037348, “Epstein-Barr Virus Nuclear Antigen 3C Facilitates G1-S Transition by Stabilizing and Enhancing the Function of Cyclin D1” (PLoS Pathogens, 2011).

Results are given in words; binding and its absence hold for the method and conditions named. In cells and extracts the contact can be indirect. Some results given as binding are weak or reduced against the parent protein; the word gives no strength.

In test [1] the target is Cyclin D1, endogenous in B-cell lines (human (endogenous in LCL1, LCL2, BJAB)) (UniProt P24385). The experiment in a line: co-IP; 50 million B cells (LCL1, LCL2, BJAB_E3C#10; BJAB as control) lysed in RIPA buffer; IP with Cyclin D1 specific antibody; EBNA3C detected by western blot with A10.
The target of test [2] is GST-Cyclin D1 (full-length) (UniProt P24385). As to the kind of experiment: pull-down; GST or GST-Cyclin D1 beads incubated with lysates of 50 million BJAB, BJAB_E3C#7 or BJAB_E3C#10 cells; binding buffer 1x PBS, 0.1% NP-40, 0.5 mM DTT, 10% glycerol; EBNA3C detected by western blot with A10; only the target purified. Background: A western blot detects proteins with antibodies after separation by electrophoresis.

In test [3] the target is myc-tagged EBNA3C residues 1-365 (Epstein-Barr virus) (UniProt P03204). The experiment in a line: co-IP; 15 million HEK 293T cells co-transfected with tagged constructs, harvested at 36 h, lysed in RIPA buffer (1% NP-40, 10 mM Tris pH 8.0, 2 mM EDTA, 150 mM NaCl); IP with 1 µg myc or flag antibody overnight at 4°C; western blot.
Test [4] has as its target myc-tagged EBNA3C residues 366-620 (Epstein-Barr virus) (UniProt P03204). The description is as above.
The target of test [5] is myc-tagged EBNA3C residues 621-992 (Epstein-Barr virus) (UniProt P03204). Described as above.
Test [6] concerns the target myc-tagged full-length EBNA3C (residues 1-992) (Epstein-Barr virus) (UniProt P03204). The description is as above.
Test [7] addresses GST-Cyclin D1 (full-length) (UniProt P24385). The experiment in a line: pull-down; GST or GST-Cyclin D1 proteins incubated overnight with 35S-labeled in vitro translated EBNA3C proteins precleared with GST-beads (1 h, 4°C); binding buffer 1x PBS, 0.1% NP-40, 0.5 mM DTT, 10% glycerol; SDS-PAGE and phosphoimager; only the target purified.
Test [8] addresses GST-Cyclin D1 residues 171-260 (UniProt P24385). The description is as above.
The target in test [9] is GST-Cyclin D1 residues 241-295 (UniProt P24385). Described as above.
The target of test [10] is GST-Cyclin D1 residues 40-170 (UniProt P24385). The test is described as above.
Test [11] addresses flag-tagged EBNA3C (Epstein-Barr virus) (UniProt P03204). The experiment in a line: co-IP; 15 million HEK 293T cells co-transfected with tagged constructs, harvested at 36 h, lysed in RIPA buffer (1% NP-40, 10 mM Tris pH 8.0, 2 mM EDTA, 150 mM NaCl); IP with 1 µg myc or flag antibody overnight at 4°C; western blot.

As to “EBNA3C stably expressed in BJAB cells (from UniProt P03204 1-992)”, the binding result in [1] and in test [2] was “binds” each time.

As for “EBNA3C, endogenous in EBV transformed lymphoblastoid cell lines (from UniProt P03204 1-992)”, the binding result in test [1] is “binds”.

With “flag-tagged Cyclin D1 (from UniProt P24385 1-295)”, the binding result in [3] is “binds”; in test [4] it was “no binding”; in test [5], “no binding”; in test [6], “binds”.

For the substance “flag-tagged Cyclin D2 (from UniProt P30279 1-289)”, in [6], the binding entry was “binds”.

On to “flag-tagged Cyclin D3 (from UniProt P30281 1-292)”, for which, in [6], the binding result is “binds”.

Regarding “in vitro translated EBNA3C residues 1-100 (from UniProt P03204 1-100) (domain or fragment)”, the binding entry in [7] is listed as “no binding”.

Consider “in vitro translated EBNA3C residues 1-129 (from UniProt P03204 1-129) (domain or fragment)”, for which the binding entry in test [7] was “no binding”.

“in vitro translated EBNA3C residues 1-159 (from UniProt P03204 1-159) (domain or fragment)”: the binding result in test [7] is “binds”.

With “in vitro translated EBNA3C residues 1-200 (from UniProt P03204 1-200) (domain or fragment)”, in test [7], the binding result is “binds”.

Turning to “in vitro translated full-length EBNA3C (from UniProt P03204 1-992)”, the binding entry is “binds” in [7], “binds” in test [8], “no binding” in [9] and “no binding” in test [10].

“myc-tagged GSK-3β (from UniProt P49841 1-420) (enzyme)”: the binding result in [11] is “binds”.
